Measured values taken from publication PMC9911399, “Two distinct binding modes provide the RNA-binding protein RbFox with extraordinary sequence specificity”.
Numbering of substitutions follows the chain as printed; changes in the protein carry UniProt numbers. The list shows a part of the results.

B1: AUUCUUA (DNA:RNA)
RNA: GGGAGACCGGAAUUCAGAUUGUCCAUUCUUAUUAAAUCCCGUCGUAGCCACCA
DNA 1: CAATCTGAATTCCGGTCTCCC
DNA 2: TGGTGGCTACGACGGGATT
B2: CCGAGUC (DNA:RNA)
RNA: B1 RNA with A25C, U26C, U27G, C28A, U29G, A31C
DNA 1: CAATCTGAATTCCGGTCTCCC
DNA 2: TGGTGGCTACGACGGGATT
B3: CCUUUAC (DNA:RNA)
RNA: B1 RNA with A25C, U26C, C28U, U30A, A31C
DNA 1: CAATCTGAATTCCGGTCTCCC
DNA 2: TGGTGGCTACGACGGGATT
B4: CGGUUUA (DNA:RNA)
RNA: B1 RNA with A25C, U26G, U27G, C28U
DNA 1: CAATCTGAATTCCGGTCTCCC
DNA 2: TGGTGGCTACGACGGGATT
B5: CUACCGA (DNA:RNA)
RNA: B1 RNA with A25C, U27A, U29C, U30G
DNA 1: CAATCTGAATTCCGGTCTCCC
DNA 2: TGGTGGCTACGACGGGATT
B6: CGAACUG (DNA:RNA)
RNA: B1 RNA with A25C, U26G, U27A, C28A, U29C, A31G
DNA 1: CAATCTGAATTCCGGTCTCCC
DNA 2: TGGTGGCTACGACGGGATT
B7: GCUGAAA (DNA:RNA)
RNA: B1 RNA with A25G, U26C, C28G, U29A, U30A
DNA 1: CAATCTGAATTCCGGTCTCCC
DNA 2: TGGTGGCTACGACGGGATT
B8: GCUAAAU (DNA:RNA)
RNA: B1 RNA with A25G, U26C, C28A, U29A, U30A, A31U
DNA 1: CAATCTGAATTCCGGTCTCCC
DNA 2: TGGTGGCTACGACGGGATT
B9: UAUCAAA (DNA:RNA)
RNA: B1 RNA with A25U, U26A, U29A, U30A
DNA 1: CAATCTGAATTCCGGTCTCCC
DNA 2: TGGTGGCTACGACGGGATT
B10: GAACGCC (DNA:RNA)
RNA: B1 RNA with A25G, U26A, U27A, U29G, U30C, A31C
DNA 1: CAATCTGAATTCCGGTCTCCC
DNA 2: TGGTGGCTACGACGGGATT
B11: AGUGGCG (DNA:RNA)
RNA: B1 RNA with U26G, C28G, U29G, U30C, A31G
DNA 1: CAATCTGAATTCCGGTCTCCC
DNA 2: TGGTGGCTACGACGGGATT
B12: GGCAUUU (DNA:RNA)
RNA: B1 RNA with A25G, U26G, U27C, C28A, A31U
DNA 1: CAATCTGAATTCCGGTCTCCC
DNA 2: TGGTGGCTACGACGGGATT
B13: UCGUCUG (DNA:RNA)
RNA: B1 RNA with A25U, U26C, U27G, C28U, U29C, A31G
DNA 1: CAATCTGAATTCCGGTCTCCC
DNA 2: TGGTGGCTACGACGGGATT
B14: CGAACUU (DNA:RNA)
RNA: B1 RNA with A25C, U26G, U27A, C28A, U29C, A31U
DNA 1: CAATCTGAATTCCGGTCTCCC
DNA 2: TGGTGGCTACGACGGGATT
B15: CGACUAU (DNA:RNA)
RNA: B1 RNA with A25C, U26G, U27A, U30A, A31U
DNA 1: CAATCTGAATTCCGGTCTCCC
DNA 2: TGGTGGCTACGACGGGATT
B16: ACCCAGG (DNA:RNA)
RNA: B1 RNA with U26C, U27C, U29A, U30G, A31G
DNA 1: CAATCTGAATTCCGGTCTCCC
DNA 2: TGGTGGCTACGACGGGATT
B17: CAGAGUU (DNA:RNA)
RNA: B1 RNA with A25C, U26A, U27G, C28A, U29G, A31U
DNA 1: CAATCTGAATTCCGGTCTCCC
DNA 2: TGGTGGCTACGACGGGATT
B18: UCCGUAG (DNA:RNA)
RNA: B1 RNA with A25U, U26C, U27C, C28G, U30A, A31G
DNA 1: CAATCTGAATTCCGGTCTCCC
DNA 2: TGGTGGCTACGACGGGATT
B19: CCCCACA (DNA:RNA)
RNA: B1 RNA with A25C, U26C, U27C, U29A, U30C
DNA 1: CAATCTGAATTCCGGTCTCCC
DNA 2: TGGTGGCTACGACGGGATT
B20: GAUGCAG (DNA:RNA)
RNA: B1 RNA with A25G, U26A, C28G, U29C, U30A, A31G
DNA 1: CAATCTGAATTCCGGTCTCCC
DNA 2: TGGTGGCTACGACGGGATT
B21: UCGCCGG (DNA:RNA)
RNA: B1 RNA with A25U, U26C, U27G, U29C, U30G, A31G
DNA 1: CAATCTGAATTCCGGTCTCCC
DNA 2: TGGTGGCTACGACGGGATT
B22: GCGAGUG (DNA:RNA)
RNA: B1 RNA with A25G, U26C, U27G, C28A, U29G, A31G
DNA 1: CAATCTGAATTCCGGTCTCCC
DNA 2: TGGTGGCTACGACGGGATT
B23: UUAGGCC (DNA:RNA)
RNA: B1 RNA with A25U, U27A, C28G, U29G, U30C, A31C
DNA 1: CAATCTGAATTCCGGTCTCCC
DNA 2: TGGTGGCTACGACGGGATT
B24: GCUAUCC (DNA:RNA)
RNA: B1 RNA with A25G, U26C, C28A, U30C, A31C
DNA 1: CAATCTGAATTCCGGTCTCCC
DNA 2: TGGTGGCTACGACGGGATT
B25: CGAGUCG (DNA:RNA)
RNA: B1 RNA with A25C, U26G, U27A, C28G, U30C, A31G
DNA 1: CAATCTGAATTCCGGTCTCCC
DNA 2: TGGTGGCTACGACGGGATT
B26: CCCUUAG (DNA:RNA)
RNA: B1 RNA with A25C, U26C, U27C, C28U, U30A, A31G
DNA 1: CAATCTGAATTCCGGTCTCCC
DNA 2: TGGTGGCTACGACGGGATT
B27: GCAACAA (DNA:RNA)
RNA: B1 RNA with A25G, U26C, U27A, C28A, U29C, U30A
DNA 1: CAATCTGAATTCCGGTCTCCC
DNA 2: TGGTGGCTACGACGGGATT
B28: CGGGAUA (DNA:RNA)
RNA: B1 RNA with A25C, U26G, U27G, C28G, U29A
DNA 1: CAATCTGAATTCCGGTCTCCC
DNA 2: TGGTGGCTACGACGGGATT
B29: ACGCCCA (DNA:RNA)
RNA: B1 RNA with U26C, U27G, U29C, U30C
DNA 1: CAATCTGAATTCCGGTCTCCC
DNA 2: TGGTGGCTACGACGGGATT
B30: ACCGACU (DNA:RNA)
RNA: B1 RNA with U26C, U27C, C28G, U29A, U30C, A31U
DNA 1: CAATCTGAATTCCGGTCTCCC
DNA 2: TGGTGGCTACGACGGGATT
B31: GAUCUUU (DNA:RNA)
RNA: B1 RNA with A25G, U26A, A31U
DNA 1: CAATCTGAATTCCGGTCTCCC
DNA 2: TGGTGGCTACGACGGGATT

Each binder was assayed against T1, RBFOX1 RRM RbFoxmut (Fox-RRM*) (Homo sapiens, UniProt Q9NWB1 109-208, R118D;E147R;N151S;E152T) (assay: EMSA; HiTS-Eq, 1 nM pool, 10 min; buffer printed only for the single-RNA assays: 10 mM Tris pH 7.5, 150 mM NaCl, 3.4 mM EDTA, 0.001% NP-40, 30 C). Settings: tags: His6 N-terminal (pET28a); label: 5' 32P.
T1 sequence: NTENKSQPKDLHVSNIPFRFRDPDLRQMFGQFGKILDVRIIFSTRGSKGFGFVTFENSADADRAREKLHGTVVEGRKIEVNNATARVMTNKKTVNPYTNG
Method in brief: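 A pool of RNA with 7 randomized nucleotides, 5′-radiolabelled and with DNA-annealed flanks, was equilibrated at 1 nM for 10 min in 50 µL with purified RbFox RRM, wild type or mutant, across increasing protein concentrations. Free RNA was separated by 8% native PAGE, excised, reverse-transcribed, barcoded by PCR and sequenced. Relative association constants were obtained from read-count changes of each RNA species versus the control reaction and normalised to the cognate motif.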

Row | Binder | binding signal
1 | B1 | 0.13 KA relative to UGCAUGU
2 | B2 | 0.108 KA relative to UGCAUGU
3 | B3 | 0.125 KA relative to UGCAUGU
4 | B4 | 0.0919 KA relative to UGCAUGU
5 | B5 | 0.0748 KA relative to UGCAUGU
6 | B6 | 0.0687 KA relative to UGCAUGU
7 | B7 | 0.0635 KA relative to UGCAUGU
8 | B8 | 0.0892 KA relative to UGCAUGU
9 | B9 | 0.0378 KA relative to UGCAUGU
10 | B10 | 0.0859 KA relative to UGCAUGU
11 | B11 | 0.161 KA relative to UGCAUGU
12 | B12 | 0.0782 KA relative to UGCAUGU
13 | B13 | 0.151 KA relative to UGCAUGU
14 | B14 | 0.0774 KA relative to UGCAUGU
15 | B15 | 0.0706 KA relative to UGCAUGU
16 | B16 | 0.102 KA relative to UGCAUGU

Row | Binder | binding signal
17 | B17 | 0.103 KA relative to UGCAUGU
18 | B18 | 0.102 KA relative to UGCAUGU
19 | B19 | 0.109 KA relative to UGCAUGU
20 | B20 | 0.109 KA relative to UGCAUGU
21 | B21 | 0.0822 KA relative to UGCAUGU
22 | B22 | 0.184 KA relative to UGCAUGU
23 | B23 | 0.208 KA relative to UGCAUGU
24 | B24 | 0.0945 KA relative to UGCAUGU
25 | B25 | 0.105 KA relative to UGCAUGU
26 | B26 | 0.13 KA relative to UGCAUGU
27 | B27 | 0.0734 KA relative to UGCAUGU
28 | B28 | 0.119 KA relative to UGCAUGU
29 | B29 | 0.0696 KA relative to UGCAUGU
30 | B30 | 0.0544 KA relative to UGCAUGU
31 | B31 | 0.0548 KA relative to UGCAUGU
